The source of these data is PMC3287209 (Nucleic Acids Research, 2012).

In the experiment the target is XRCC4 wild-type (human, UniProt Q13426). The experiment is described as follows: native gel or EMSA.

B1: XLF–K293A (natural protein)
chain: not shown
Turning to B1, the binding result is “binds”.
